# In all, about 33,000 sequences were measured (“E-score (dimensionless, -0.5 to 0.5)”: median about -0.058, highest 2% from about 0.35 on). This is one part of the list.
# Tested on: MvaT
# Test: PBM 8-mer E-score (mean of HK and ME arrays) (E-score (dimensionless, -0.5 to 0.5)); higher = stronger relative binding preference; most listed sequences are background and not binding sites
# Summary of the method: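 Reported values are rank-based E-scores, taken as the mean of two universal arrays and parsed with a custom script. Each 8-mer score falls between -0.5 and 0.5. The arrays, ME and HK, were double-stranded 60-mers with a constant 25-mer primer region and a variable 35-mer region covering all 8-mers. They were probed, by an earlier protocol, with full-length P. aeruginosa MvaT carrying an N-terminal glutathione S-transferase fusion.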
row,Sequence,PBM 8-mer E-score
1,ACGGCCGA,-0.134
2,CAGCGTCG,-0.155
3,ATGTAAGG,-0.00135
4,CCAGAGCC,-0.292
5,CGCTTCTC,-0.135
6,GACTAATA,0.297
7,GGAACTGA,-0.123
8,ACGGATAG,-0.12
9,CAAACCCG,-0.168
10,AGTTAGCC,0.0865
11,GATCTATA,0.158
12,ACCTGTCC,-0.182
13,CTGGCCAC,-0.182
14,GATTTGTA,0.205
15,GTTGTTGA,0.124
16,CGCTTTAG,-0.0599
17,TAGAAATA,0.294
18,AGTGAACA,0.0076
19,TGGTCGAA,-0.147
20,AGAATGCC,-0.154
21,CTTTCGCA,-0.127
22,ATCTAAAT,0.221
23,CTTCGGTC,-0.113
24,CGCCGGAG,-0.221
25,AACTAAAC,0.282

row,Sequence,PBM 8-mer E-score
1,GCCATCGA,-0.134
2,CAGGAGGC,-0.281
3,CGGTCGTA,-0.0948
4,GCAAAAGC,-0.132
5,GGGGTCCA,-0.219
6,ACGAGGCA,-0.228
7,CAAGGTAG,-0.102
8,CACGAGGC,-0.18
9,CGGCAAAA,0.0672
10,GCCAACCC,-0.121
11,GAGGTTAA,0.0368
12,ATTTTATC,0.202
13,AGAGGCCC,-0.154
14,AGCGATTC,0.0202
15,ACTCCTTG,-0.131
16,AAATACGA,0.108
17,ACGCTACC,-0.112
18,CTGCTACC,-0.141
19,CCATAGTA,0.0348
20,AGTGAACG,-0.0531
21,ATCGTGAC,-0.219
22,CAATTACC,0.192
23,ATTCTCGA,0.11
24,GCTTAGTA,0.144
25,ACAGCTAT,0.0504

row,Sequence,PBM 8-mer E-score
1,CCGTCCTA,-0.129
2,CAGTGACG,-0.22
3,GCTGTTAA,0.162
4,ACGCGTTG,-0.0108
5,CCAGTTCG,-0.127
6,AGGAATCC,-0.197
7,CTTACGCC,-0.0391
8,ATCGGGTA,-0.0863
9,TACATCGA,0.11
10,ACGCTGAC,-0.0652
11,GTACCAAC,-0.0687
12,ATCGAAAC,0.0275
13,GCCTAAAA,-0.0431
14,CCTGCGCA,-0.121
15,CAGGCCCA,-0.231
16,AGATGTGA,-0.0635
17,AAGCAATT,0.161
18,TATGAAGA,0.182
19,GCATTTTA,0.177
20,CGTGTGAG,-0.275
21,GAATGATA,0.133
22,AAAACTCA,0.0646
23,ACGGCACT,-0.186
24,CATCGACC,-0.216
25,ATTTATCC,0.286

row,Sequence,PBM 8-mer E-score
1,TAAAATTA,0.288
2,AGAACCCG,-0.221
3,CCTTACGA,-0.0553
4,ATCTCTAA,-0.0417
5,TCATAACA,0.0779
6,ACAGATCA,-0.00269
7,GGCGTGGA,-0.173
8,CACTCTCA,-0.183
9,GAAATTAA,0.331
10,CACATAGA,0.179
11,CACAGACC,-0.233
12,AATCTAGC,-0.0252
13,GCATCAGC,-0.135
14,TAGCATCA,0.0156
15,TCCCAAAA,-0.00576
16,CTCCGTTC,-0.179
17,ACGGCCAA,0.0217
18,AGCAACTC,-0.0122
19,CGTCTCGC,-0.228
20,AATCTGAA,0.179
21,CAAGCAGG,-0.0598
22,CTACCACC,-0.0603
23,GTGACCCA,-0.143
24,CGTGCACG,0.0125
25,ATCCGCGG,-0.105

row,Sequence,PBM 8-mer E-score
1,CCACCACC,-0.0649
2,AATTGAAT,0.286
3,CGACCACC,-0.189
4,GATGTTTA,0.256
5,ATAATAGA,0.364
6,AATCGAGT,0.0187
7,CATACATA,0.277
8,AGACAGGC,-0.0933
9,AAGGTCCT,-0.131
10,ATACACGA,0.125
11,AGTGTTCG,-0.0659
12,AATAACGA,0.326
13,CGATACCC,-0.141
14,GAAGAGTC,-0.211
15,CCCTGATA,-0.0808
16,ACGAGGGC,-0.308
17,GCCTCATA,-0.1
18,AGTAATCC,-0.0578
19,AGGGCGAG,-0.108
20,ATGTTAAA,0.329
21,CATTGCCC,-0.0645
22,ACGGATGG,-0.194
23,GACAGCAA,0.0964
24,ACTGGTCG,-0.218
25,CTGGACCC,-0.285

row,Sequence,PBM 8-mer E-score
1,ACGATCTA,0.0186
2,ACTCAAGC,-0.0815
3,GATCGCAC,-0.108
4,CGGTAAAG,0.00449
5,GATGTAGC,-0.189
6,GGAAGTCC,-0.341
7,ATCAGACC,-0.155
8,AATATGCA,0.264
9,AATGAGCT,-0.164
10,ATCGCAAC,0.0331
11,TCTCACAA,-0.0526
12,AAAGGCTC,-0.23
13,ACCTCTTA,0.0241
14,CAGTTGGA,-0.14
15,GACTATCA,-0.0497
16,CGTCGATA,0.143
17,ATCAAAAC,0.106
18,CTGATTCA,-0.00428
19,GGCTTCCC,-0.266
20,AGGTCGAT,-0.211
21,GATACGAC,-0.0549
22,ATCCGCCA,0.0248
23,GATATCGA,0.0484
24,GAACCAAC,-0.0644
25,ACTCTTAG,0.0697

row,Sequence,PBM 8-mer E-score
1,GATCTCCA,-0.11
2,AAGAATCT,-0.0428
3,GACACCCA,-0.167
4,GGGCCAGA,-0.297
5,ACGTTCAT,-0.0924
6,AAGTCACA,-0.0046
7,CAAACGCC,-0.216
8,CAGACGAC,-0.131
9,ACGTTAGA,-0.0394
10,ATAACCAC,0.174
11,GTCACGAC,-0.172
12,CCCAACAG,-0.146
13,ATTGGAGC,-0.00417
14,AAATCAGT,0.111
15,CGCCGTTA,0.0739
16,GGTTCCCA,-0.25
17,GGAATGAC,-0.144
18,CCTCCACA,-0.106
19,CAAGTTGC,0.0785
20,GAACAGGA,0.0121
21,AGTGATAC,0.13
22,ATGTCTAA,0.058
